Test results taken from patent US20260041765A1 (SHANDONG SIMCERE BIOPHARMACEUTICAL, published 2026).

Target: T1, mouse TIGIT protein (mouse, UniProt P86176 29-148, limits assumed)
T1 construct: Soluble analyte in the BIAcore kinetics of 1.4; also called mTIGIT
T1 sequence (looked up): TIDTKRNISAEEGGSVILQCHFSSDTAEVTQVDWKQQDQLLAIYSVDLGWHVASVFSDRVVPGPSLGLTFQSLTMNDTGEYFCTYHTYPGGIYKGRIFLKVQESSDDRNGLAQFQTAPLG
Test: SPR (BIAcore), antibody captured on Protein A chip
Description: A Protein A chip was adopted in this experiment, and the time required for the chip to capture the diluted antibodies was measured by manual run so that the saturated antigen binding Rmax was 50 RU. The human, cynomolgus monkey, and mouse TIGIT and PVRIG proteins were diluted in gradient to 20, 10, 5, 2.5, and 1.25 nM. The affinity of the antibodies for the antigens was determined using multi-cycle kinetics. In each cycle, after the antibodies were injected, gradient concentrations of the human, cynomolgus monkey, and mouse TIGIT and PVRIG proteins were injected to ensure that the antigens and the antibodies were bound and dissociated. After each cycle, the Protein A chip was regenerated using Glycine pH 1.5 (to remove proteins on the chip). BIAcore T200 analysis software was used to fit the affinity KD of the antibodies for the antigens.

B1: LC-BsAb-002 (bispecific antibody)
heavy: EVQLVESGGGLVQPGGSLRLSCAASGFTFSYYDMSWVRQAPGKGLEWVSTINSDGGRTSYVDSVKGRFTISRDNSKNTLYLQMNSLRAEDTAVYYCVEGDPHNFGLESLSLRDFGSWGQGTMVTVSSGGGGSGGGGSGGGGSGGGGSEVQLQESGPGLVKPSETLSLTCAVSGYSITSDSWNWIRQPPGKKLEYIGYISYSGNTYYNPSLKSRVTISRDTSKNQFSLKLSSVTAADTAVYYCARLDFSNYGGAVDYWGQGTTVTVSS[human IgG1 constant region not written out]
light: DIVMTQSPDSLAVSLGERATINCKASQNVRTAVAWYQQKPGQSPKLMIYSASYRYTGVPDRFSGSGSGTDFTLTISSLQAEDVAVYYCQQYYTTPWTFGGGTKVEIKRTVAAPSVFIFPPSDEQLKSGTASVVCLLNNFYPREAKVQWKVDNALQSGNSQESVTEQDSKDSTYSLSSTLTLSKADYEKHKVYACEVTHQGLSSPVTKSFNRGEC
notes: Anti-PVRIG VHH joined to the N-terminus of the heavy chains of the anti-TIGIT antibody; also called PVRIG/TIGIT bispecific antibody; humanized anti-PVRIG×TIGIT bispecific antibody
binding result: no binding (tested: 20 nM (highest concentration tested))
